Reference: the supplement of paper PMC3334620
Over roughly 33,000 sequences, “E-score (-0.5 to 0.5)” has its median near -0.016; the highest 2% begin near 0.31. The list shows a part of the results.

Molecular target: Cst6 (UniProt P40535)
Experiment: PBM E-score (8-mer binding enrichment) (E-score (-0.5 to 0.5)); higher = stronger / more preferred TF binding; most listed sequences are background and not binding sites
Settings: protein concentration: 200 nM; construct: GST-DNA-binding domain
Method: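 Universal 'all 10-mer' protein binding microarrays (Agilent AMADID 015681) probed with GST-tagged S. cerevisiae TFs (full-length or DBD) made by in vitro transcription/translation (PURExpress), about 100-200 nM. Bound TF was detected with fluorescent anti-GST. Each ungapped 8-mer (which stands for itself and its reverse complement) is scored by the PBM enrichment score (E-score), a modified Wilcoxon-Mann-Whitney statistic from -0.5 to +0.5, computed with the Universal PBM Analysis Suite. Scale: above 0.35 generally sequence-specific binding.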

Sequence | PBM E-score
ACCATCCG | -0.0928
ATGCCGGG | -0.0788
CCTACACA | -0.0404
ACCCATCG | -0.0974
AATTATAC | 0.152
AAAAGAGA | 0.0374
ACGGTAGA | -0.177
AGACAACG | -0.029
CGGATGAG | -0.135
AAAGTGCC | -0.104
CATTGTTC | -0.0577
GCTATTGA | 0.108
AATAGCCG | 0.0808
ACTTCATA | 0.212
ACAGTGCA | -0.0278
CACGGATA | 0.184
ACACATAT | 0.21
CACTAAGG | -0.139
CTGAGGTA | 0.0121
CAATGACC | 0.148
GCGTGATA | 0.038
GCGTGTTA | -0.0673
CCACTTTA | 0.034
AAACCGAA | -0.00079
CCAAATTA | 0.236

Sequence | PBM E-score
CCCTAACG | -0.067
GTTGCTTA | 0.141
AACTTTGC | -0.0842
CGAGTTTA | -0.0493
AACATCCG | -0.00024
GTAACCGA | 0.107
ATGAAGTG | 0.121
CTGAGAGA | -0.0178
ATCAGTGC | 0.128
AAAAGCGT | 0.0324
AAGCTATC | 0.112
ATGTACGA | -0.0138
CAGGAACG | -0.156
GTAATTCA | 0.208
GCCATGAC | 0.284
CGACAGGC | -0.271
ACGGGTAG | -0.0628
ACCTCCAG | -0.19
ATTTGCCA | -0.102
AGATAACT | 0.0121
GCGGATCA | 0.0437
TCTCACCA | 0.0956
CATATGCC | 0.229
GGTGCGTA | -0.062
AAAATTTG | 0.152

Sequence | PBM E-score
GGAGCACA | -0.11
AGCGCTCC | -0.148
ATGGTGTA | 0.0889
CCACAGCA | -0.0512
CATCTTGC | 0.0149
ACCGCAAT | 0.181
AACACGCG | 0.0673
AGCGTAAA | 0.0369
CAAAAATC | 0.0454
ATGCTAAA | 0.0592
CGTTGATA | 0.185
GGGCCAAA | -0.179
GTTCCAGA | 0.00917
ATTCAATC | 0.166
GCAGCAGC | -0.133
ACGTACAG | -0.032
ACGACGCG | 0.127
CACTGTGG | -0.113
GCACATCA | 0.131
TAGACTAA | -0.0425
AGGAGATG | -0.0344
GAAGGTCC | -0.302
GGTCAATA | 0.0678
ATGGTTCG | -0.0714
CGATGGGA | -0.179

Sequence | PBM E-score
CCAGGGAA | -0.0639
GTGTCACA | 0.229
ACGTTACC | 0.179
TGGGTTAA | -0.0301
ACACCTGG | -0.163
GTTCGATA | 0.114
TAAGTCGA | -0.0876
ATCCGGGC | -0.174
AATCCCCG | -0.236
AGGCCCCC | -0.367
CTGGATAA | -0.0534
GCTTTTTA | 0.125
ACTTATGA | 0.147
ACGTGAGA | 0.0305
AAAGGTCC | -0.191
AGAGAGTG | -0.227
ACCTTGGA | -0.142
CTAGTGTC | -0.161
AGGACGTG | -0.088
GTTCTCGA | 0.00202
AATTAATT | 0.311
AGTTCTAA | -0.125
ACCACGCA | -0.0852
CATACGCC | 0.156
AGTGACTC | 0.0809

Sequence | PBM E-score
GAGTTGGC | -0.176
CCGGAAGA | -0.094
AGTAAGGC | 0.0482
AAACCATC | 0.0908
AACCGACG | -0.0249
CCCCAATA | -0.0749
CTTGCATC | -0.0262
ATGCCGCC | 0.0661
AAAAGACC | -0.148
CATGCAAC | 0.0477
CCAGCGAC | -0.217
CTAATAAC | 0.221
AGTATAGG | -0.189
ACTCTTTA | -0.0326
AATGCGTA | 0.0909
GTGCGTGA | 0.136
CTCGCGCC | 0.0861
AGCGACTA | -0.207
CAAGGCTA | 0.0896
ACATCCTA | 0.0123
TAGCACCA | 0.0296
GCGAGTCA | -0.0735
CGCAACTC | 0.0252
AGGTTAGG | 0.0241
AACAAAAA | 0.252

Sequence | PBM E-score
ACCCAGGT | -0.33
ACGGAAAT | 0.264
GAACGCAA | 0.0684
CTTGCGAA | 0.0868
ACTGCGTC | 0.147
ATCGTCGG | -0.215
ACTCGTTC | -0.0158
AGCGTACA | -0.145
ATCATGGG | 0.00408
CCCCCGAG | -0.336
AGGCCCGG | -0.41
AGAAGTTA | 0.201
CACAAGCA | -0.0762
GGGCAACA | -0.124
GATGATAA | 0.257
ATTCAAGG | -0.108
AACTGAGA | 0.062
CCCAATCG | -0.0318
ACCAGCGT | -0.0674
AAAAGGTG | -0.0235
ATACTAGG | -0.154
AAGGGCCC | -0.19
ATCACGCG | 0.221
AACCGGAT | 0.106
ATGTTCCG | -0.107

Sequence | PBM E-score
GATCATCC | -0.0712
ACAATTAG | 0.0142
CCCGCACC | -0.231
AGAGACAT | -0.0521
AGTGACGA | 0.399
AGAGTTTA | 0.176
CACGTCCG | -0.146
GGGGTTAA | -0.213
CGGACGGA | -0.157
ACCAATCC | -0.0861
AAACTGGT | 0.00264
CCTTGAAC | -0.128
GACACTGA | 0.0443
GAGTGTAC | -0.164
GTAGCACA | -0.0684
CTCAAATA | 0.105
GGTAAGAC | -0.069
ACAAGGCC | -0.3
AGCTGGAT | -0.0868
CTTATACA | 0.0243
CTGATTTA | 0.0774
ATAATCGG | 0.229
ATACCATC | 0.00666
CCTTGTTA | 0.113
ATCTGATG | -0.0889

Sequence | PBM E-score
GCGGAAAC | -0.179
AGTCGTTA | 0.0351
ACGGTGTA | 0.0103
CGTCCCCC | -0.393
GCGCACAA | 0.098
AAGAATAT | -0.0598
CTAGTTGC | -0.0674
ACAGTGCG | -0.0367
GAGCGATA | -0.0987
ACTCCTCG | -0.0384
CGCAGATA | -0.135
ATCTCGAC | -0.056
GAATGGCA | 0.104
CAGGAGGA | -0.308
GACTACAA | 0.044
ACGAGCGA | 0.0785
AGGCAGTA | -0.203
TAACGAAA | 0.27
GAACATAC | 0.109
ACAAAAAC | 0.104
GGCAACAC | 0.0798
TCCGTACA | 0.0513
GTATCTAA | 0.121
CGTCTCTC | -0.0567
ACCGGTTG | -0.112

Sequence | PBM E-score
ACTCTTCA | 0.0193
CACTAATG | 0.0806
ACCAGTCT | -0.143
GTGACGCA | 0.471
AAGTATAC | 0.114
ACGTCTGG | 0.102
ACTCCCCC | -0.299
ACTTGAAC | -0.0383
ATCTTAGA | 0.155
ATTATGTA | 0.355
GTCGAATA | -0.0161
CATAATGG | -0.0715
AGACGGAG | -0.0968
ATACGCTA | -0.151
GATATGAA | 0.141
CACAGCGA | 0.107
CCGTTACC | -0.143
GTGCGCCA | -0.117
GTAAAAAA | 0.186
TGGCTAAA | 0.0343
ATTCCTAA | 0.111
CTCTGCAA | -0.0726
TGTCATAA | 0.323
GCGACTCC | -0.383
GATCAAAA | 0.094

Sequence | PBM E-score
AAACGAAG | 0.0747
CGACGTTC | -0.229
AGCAATGC | 0.00876
AGATGGGA | -0.125
AGTCGATA | -0.0231
AGACAGAT | 0.0887
ATAAGGCC | -0.16
AACTCTTG | -0.0742
AGTCTGGG | -0.29
AACACGGC | 0.218
CAACGACA | 0.189
CCTTAGTA | -0.0791
AACTCCGC | -0.221
CAGACCTA | -0.00947
CGCAAGGC | 0.213
ATCCTACA | -0.125
CGGAGCAC | -0.194
ATCATGCG | 0.147
ACGGGGAG | -0.22
CGTAACAG | 0.292
ATTCAAAG | 0.0878
CGCGGGTC | 0.0698
GATAAATA | 0.153
GGCTAAAC | 0.00854
TGGTTGAA | -0.178

Sequence | PBM E-score
CACCGAAG | 0.0337
ATGATCCC | -0.0397
AACGTCAC | 0.488
GGGCGCAA | -0.0785
GGATTATA | -0.0365
AGTTCGAG | 0.0173
AAATTCAC | 0.163
CACCGCCA | -0.0471
GCGTCGCC | -0.0304
CAATTGCC | -0.0268
ATGCCCAC | -0.0872
CGGTTCTA | -0.0455
CTCCAACC | -0.047
TAGAGAGA | 0.06
CCCCAGGG | -0.435
ACAAATCA | 0.169
AGAGATGG | 0.075
GTGATAAC | 0.165
GGATCACA | 0.0122
GACGAATC | 0.165
AGTAACAG | 0.0458
AGATACCC | -0.0749
CGCTCATA | 0.0501
AAGCCCGG | -0.209
GAACGATA | -0.0244

Sequence | PBM E-score
ACATGAGC | 0.0157
CAGACCCC | -0.316
ACCTCTGG | -0.164
AAACCCTA | -0.141
CTCGAAAA | 0.0887
CAAAAACG | 0.121
CGGGGGCA | -0.273
CAACCAAG | 0.0364
AAATAGGG | -0.198
GGCACTTA | -0.00485
CAGTTAGG | -0.0638
AGTCTTAG | -0.218
CACAGCTG | -0.131
CTCACGGC | 0.105
ATTGTACC | 0.052
GGTACCGA | -0.345
TACGCCGA | -0.0328
ACGCAGGG | 0.0221
AAGCGGGG | -0.179
CGTTTAAG | 0.0111
AGCTCAGC | -0.203
AACCATCG | 0.163
AAATTTAC | 0.222
GAAAAACC | 0.0383
CTCGGTGC | -0.142

Sequence | PBM E-score
CGCACTGC | 0.00772
AAATGTGT | 0.216
AGACGTCT | -0.207
AGCGAATA | 0.126
CTGATGTA | 0.326
TCAATGCA | 0.102
AACTGTAC | -0.0682
GTGAATCA | 0.0592
CCGGCCCC | -0.374
GTTATACA | 0.0889
ACCTTGAG | 0.0478
GGGTAAAC | -0.0631
GAACAGTA | 0.121
ACCAGGGT | -0.319
CAGAATGG | -0.0138
AGTCTCGG | -0.273
ATGGCATA | 0.211
AGCCCATG | -0.0782
CTTATATC | 0.291
AGGATAGA | 0.0193
AGATCCCC | -0.237
CCTAATCA | 0.172
CTCTTAAA | 0.112
ATTACTTC | 0.133
CCTTTGGA | -0.228

Sequence | PBM E-score
CACTCACC | 0.0044
AAGGCTCT | -0.0115
AGTCCCCC | -0.43
AGAAGAAT | -0.0262
ATGTCCCC | -0.168
AGAGAAAT | 0.128
AAACGTGG | -0.122
GAGGTGCA | 0.0333
AAAGCGCC | 0.113
CGTTCCTA | -0.00988
AAATGAAT | 0.0873
AGATAATA | 0.203
ACTGGATC | -0.0585
ATACTGCA | 0.0679
CGCCACTC | 0.0123
CAGATCAG | 0.0267
CGACTATA | 0.0833
CTATCCAC | -0.0799
AGCCCTAA | -0.0389
